Among the data in the RNAGym collection of RNA variant scans (doi:10.7554/elife.90254) are self-cleavage values, retold here.

The source gives no read counts; variants with many changes may rest on few reads.

Sequences and labels used below:
B1: LINE1-full (parent)
chain: UACGUAGGUGGUUUUCCCCUGAUAGUGCUAAGGGGGCCUGGAAGUUUGGACUGGGCAGAGCUCAACACAGCGUGGCAAAGUGGCUGUGGCUAGACUGCCUCUCUGGAUUCCUCGUCACUCAGCAGGGCAUCUCUGAGAGAAAUGCC

This data set covers variants of B1. Nature of the data set: self-cleavage, relative activity (ratio to wild type); higher = more cleavage; in vitro, sequencing; the parent is a self-cleaving ribozyme.
On to UACGUAGGAGGCUUUCCCCUGAUAGUGCUUAGGGGGCCUGGAGGUUUGGACUGGGCAGAGCUUAACACAGCGUGGCGAAGUGGCUGUGGCUAGACUGCCUCUCUGGAUUCCUCGUCACUCAGCAGGGCAUCUCUGAGAGAAGUGCC, for which the self-cleavage was determined as 1.49. UACGUAGGUGGUUUUCCCCUGAUAGUGCUAAGGGGGCCUGGUAGUUUGGACUGGGCAGAGCUCAACCCAGCGUGGCAAAGUGGCUGUGGCUAGACUGCCUCUCUGGUUUCCUCGUCACUCGGCGGGGCAUCUCUGGGAGGAAUGCC: the self-cleavage turned out to be 0. As for UACGUAGGUGGUCUUCCCCUGAUAGUGCUAAGGGGGCCUGGAAGUCUGGACUGGGCAGAGCUCAACGCAGCGUGGCAAAGUGGCUGUGGCUAGACUGCCUCUCUGGAUUCCUCGUCACUCAUCAGGGCAUCUCUGAGAGAAAUGCC, the figure is 0.95; as for UACGUAGGUGGUUUUCCCCUGAUAGUGCUGAGGGGGCCUGGAAGUUUGGACUGGGCAGAGCUCAACCCAGCGUGGCAAAGUGGCUGUGGCUAGACUGCCUCACUGGAUUCCUCGUCACUCAGCAGGGCAUCUCUGAGAGAAAUGCC, 0.27. The same measure for UACGUAGGUGGUUUUCCCCCGAUAGUGCUAUGGGGGCCUGGAAGUUUGGACUGGGCAGAGCUCAACACGGCGUGGCAAAGUGGCUGUGGCUUGACUGCCUCUCUGGAUUCCUCGUCACUCAGCAGGGCAUCUCUGAGAGAAAUGCC: 0; for UACGUAGGUGGUUUUCCCCUGAUAGUGCUAAGGGGGCCUGGAAGUUUGGACUGGGCAGAGCUCAACACAGCGUGGCAAAGUGGCUGUGGCUAGACUGCCUCUCUGGAUUCCCCGUCACUCAGCAGGUCCUCUCUGAGAGAAAUGCC: 1.14.

With UACGUAGGUGGUUUUCCCCUGAUAGUGCUAAUGGGGCCUGGAAGUUUGGACUGGGCAGAGCUCAACUCAGCGUGGCAAAGUGGCUGAGGCUAGACUGCCUCUCUGGAUUCCUCGUCACUCAGCAGGGCAUCUCGGGGAGAGAUGCC, the self-cleavage worked out at 1.04. The same measure for UACGUAGGUGGUUUUCCCCCGAUAGUGCUAGGGGGGCCUGGAAGUUUGGACUGGGCAGAGCUCAACACAGCGUGGCUAAGUGGCUGUGGCUAGACUGCCUCUCUGGAUUCCUCGUCACUCAGCGGGGCAUCUCUGAGAGAAAUGCC: 0.62; for UACGUAGGAGGUUUUCCCCUGAUAGUGCUAAGGGGGCCUGGAAGUUAGGACUGGGCAGAGCUCGACACAGCGUGGCAAAGUGGCUGUGGCUAGACUGCCUCUCUGGAUUCCUCGUCACUCAGCAGGGCAUCUCUGAGAGAAAUGCC: 0.21.

In the case of UACGAAGGUGGUUUUCCCCUGAUAGUGCUAAGGGGGCCUGGAAGUUUGGACUGGGCAGAGCUCAACACAGCGUGGCAAAGUGGCUGUGGCUAGACUGCCUCUCUGGACUCCUCGUCACACAGCAGGGCAUCUCUGAGAGAAAUGCC, the self-cleavage amounted to 0.75. On to UACGUAGGUGGUUCUCCCCUGAUAGAGCUAAGGGGGCCUGGAAGUUUGGACUGGGCAGAGCUCAACACAGCGUGGCAAAGUGGCUGUGGCUAGACUGCCUCUCUGGAUUCCUCGUCACUCAGCAGGGCAUCUCUGAGGGAAAUGCC, for which the self-cleavage was determined as 1.34. The same measure for UACGUAGGUGGUUUUCCCCUGAUUGUGCUAGGGGGGCCUGGAAGUUUGGACUGGGCAGAGCUCAACACAGCGUGGCAAUGUGGCUGUGGCUAGACUGCCUCUCUGGAUUCCUCGUCACUCAGCAGGGCAUCUCUGAGAGAAAUGCC: 1.2. The same measure for UACGUUGGUGGUUUUCCCCUGAUAGUGCUAAGGGGGCCUGGAAGUUUGGACUGGGCAGAGCUCGGCACAGCGUGGCAAAGUGGCUGUGGCUAGACUGCCUCUCUGGAUUCCUCGUCACUCAGCAGGGCAUCUCUGAGAGAAAUGCC: 0; for UACGUAGGUGGUUUUCCCCUGAUAGUGCUAAGGGGGCCUGGAAGUUUGGACUGGGCGGAGCUCAGCACAGCGUGGCAAAGUGGCUGUGGCUAGACUGCCUCUCUGGAUUCCUCGUCACUCAGUAGGGCAUCUCUGAGAGAAAUGCC: 0.05; for UACGUAGGUGGUUUUCCCCUGAUGGUGCUAAGGGGGCCUGGAAGUUUGGACAGGGCAGAGCUCAACACAGCGUGGCAAAGUGGCUGUGGCUAGACAGCCUCUCUGGAUUCCUCGUCACUCAGCAGGGCAUCUCUGAGAGAAAUGCC: 0.1. As for UACGUAGGUGGUUUUCCCCUGAUAGAGCUAAGGGGGCCUGGAAGUUUGGACUGGGCAGAGCUCUACACAGCGUGGCAAAGUGGCUGUGGCUAGACUGCCUCUCUGGAUUCCUCGUCACUCAGCAGGGCAUCUCAGAGAGAAAUGCC, the self-cleavage was 0. UACGUAGGUGGUUUUCCCCUGACAGUGCUGAGGGGGCCUGGAAGUUUGGACUGGGCCGAGCUCAACACAGCGUGGCAAAGUGGCUGUGGCUAGACUGCCUCUCUGGAUUCCUCGUCACUCAGCAGGGCAUCUCUGAGAGAGAUGCC: the self-cleavage was 0. CACGUAGGUGGUUUUCCUCUGAUAGUGCUAAGGGGGCCUGGAAGUUUGGACUGGGCAGAGCUCAACACAGCGUGGCAAAGUGGCUGUGGCUAGACUGCCUCUCUGGAUUCCUCGUCACUCAGCAGGGCAUCUCGGAGAGAAAUGCC: the self-cleavage was determined as 0.99. UACGAAGGUGGUUUUCCCCUGAUAGUGCUAAGGGGGCCUGGAAGUUUGGACUGGGCAGAGCUCAACUCAGCGAGGCAAAGUGGCUGUGGCUAGACUGCCUCUCCGGAUUCCUCGUCACUCAGCAGGGCAUCUCUGAGAGAAAUGCC: the self-cleavage amounted to 0.2.
